Test results as given in the RNAGym collection of RNA variant scans (doi:10.7554/elife.90254).
The source gives no read counts; variants with many changes may rest on few reads.

B1: OR4K15 (parent)
chain: GUUAACGGUCAUAGGCCAUGGAAACUAGGAGCACCAUUUCGCUGCCAGUGAAGAAAUGAACAAAGAAAAUCUGGGCCAGGCAGGCAUCAAAAGAAAUAGUCUUGCGCUCAACCAGAAAGUCUGUAAUCAUUUUAAGGGUA

Variants of: B1
Test: self-cleavage, relative activity (ratio to wild type); higher = more cleavage; in vitro, sequencing; the parent is a self-cleaving ribozyme
For U2C U100C A116G, the self-cleavage was 1.38. For A54G A90G A92G A94G A96G, the self-cleavage was 1.05. Work on A22G A82G A94U U120C yielded a self-cleavage of 0.6. A91G U103C U122C gave a self-cleavage of 0.22. In the case of A23G A82C U131C, the self-cleavage is reported as 0.2. A23G A62G A64G gave a self-cleavage of 0.65. With G7A U9G A27G A30G A69U the self-cleavage was 0.63. A67G A69G U122A showed a self-cleavage of 1.39. Variant A23G G58U A117G has a self-cleavage of 1.69. Variant A23G U120A U132C has a self-cleavage of 1.65. Variant A5G U39C A62G U120A has a self-cleavage of 0.78. With A54G A66G U87C the self-cleavage was 0.92. U38C A66G U130C U139A gave a self-cleavage of 1.51. U9A U12C A66U A68G A95G showed a self-cleavage of 0.84. A22G A33U A63G A90G A94G U120C U122A U131C gave a self-cleavage of 0.35. Variant U37C A62G U100C A116G has a self-cleavage of 1.42. Work on U38C U87C A140U yielded a self-cleavage of 2.15. A96G A126G A134G showed a self-cleavage of 1.15. Variant A11G A22U A86G has a self-cleavage of 0.82. With U38C A54G A64G U131C the self-cleavage was 1.53. With A86G A96U A110G A129G the self-cleavage was 0.06. A90G U122C G137A gave a self-cleavage of 0.43. Variant U37A U39C U43A U72C U124C has a self-cleavage of 0.07. In the case of U70C A90U A95G A125G, the self-cleavage is reported as 0.75. Variant U39A U70C A78C A82G A117U has a self-cleavage of 0.05. In the case of U12C U39C U120C C121U, the self-cleavage is reported as 2.73. With A24G U72C U103C the self-cleavage was 0.16. U9C A22G A94G U127C showed a self-cleavage of 0.67. For U38C U57C G74A A94G A114G, the self-cleavage was 0.07. Variant A68G U102C A135G has a self-cleavage of 0.67. Work on A91G U102C C105U U130C yielded a self-cleavage of 0.34. Variant A11G A60G A135U has a self-cleavage of 0.61. Work on A22G A82G U102C yielded a self-cleavage of 1.33. For U57C A67G A110G, the self-cleavage was 0.06. For U26C A51U A60G A91U, the self-cleavage was 0. For C77U U103C U122C, the self-cleavage was 0.91. Work on U43C U132C U133C yielded a self-cleavage of 1.48. With U12A A22G A66U U97A the self-cleavage was 1.51. Variant G14A A64U A68G has a self-cleavage of 1.26. In the case of U19C G28A A78U A96G U97A A117G U139C, the self-cleavage is reported as 0.29. A5G A67G A110G showed a self-cleavage of 0.13. A66U A90G U100A A118G gave a self-cleavage of 0.11. In the case of C88U A110G A111G, the self-cleavage is reported as 0.01. Work on G41A A63G U97C yielded a self-cleavage of 1.35. For U9A U43C U87C U100C, the self-cleavage was 2.4. For A68G A69G A95U A126G U139C, the self-cleavage was 0.96. U2C U39C G84U gave a self-cleavage of 0.78. With A78C U120C A134G the self-cleavage was 0.14. Variant A11G A51G A59U A94G has a self-cleavage of 2.13. Work on A90G U97C C109U yielded a self-cleavage of 0.22. Work on A23G A82U A96G U100C U124A yielded a self-cleavage of 0.08. For A5G A11U C16U A110G A111U U132C, the self-cleavage was 0.01. U2C U19C U102C A117G showed a self-cleavage of 2.02. With U38C A51G U57C A90G A134U the self-cleavage was 1.74. A54G U57A A78G showed a self-cleavage of 0.33. Variant A92G A117U U133A has a self-cleavage of 0.77. In the case of U38C A55G U100C, the self-cleavage is reported as 1.4. In the case of U9C A91U A111G, the self-cleavage is reported as 0.02. C32U U39C U70C showed a self-cleavage of 1.17. With U57C U70C C77U A140G the self-cleavage was 1.31. In the case of A51G A86G A114G, the self-cleavage is reported as 1.27. A33U A95G U103C gave a self-cleavage of 2.08. A33G A91G A111U A135G gave a self-cleavage of 0.06. A33U A82G A89U A94G gave a self-cleavage of 1.11. With A22G A51G A86G A91G G115A G136A the self-cleavage was 0.04. Variant A27G A91G A118G has a self-cleavage of 0.42. Work on U43C A51G U139C yielded a self-cleavage of 1.06. For A23G A27U C40U A47G G79A, the self-cleavage was 0.19. In the case of A33G A67G A118G, the self-cleavage is reported as 0.35. U37C A55G A62G A91G U108C A126G gave a self-cleavage of 0.03. G41A A78G U108A showed a self-cleavage of 0.02. With A33G C42U A78U U97C the self-cleavage was 0.1. U39C A60G A86G gave a self-cleavage of 0.65. With G21U G80A A94G U102C the self-cleavage was 0.31. Work on A69C U70C U72C C76U U103G yielded a self-cleavage of 0.02. With G48U A86U A118G the self-cleavage was 1.86. In the case of U3C A47G A92G, the self-cleavage is reported as 2.05. Variant A33G U72C A114U A117G has a self-cleavage of 0.01. For A18G A47U A62C A90G A135U, the self-cleavage was 0.51. U19C A55G A64U showed a self-cleavage of 1.63. Work on U38A A51U A78G U108C yielded a self-cleavage of 0.01. For A60G A111G A118G, the self-cleavage was 0.01. With U87C U100C U139C the self-cleavage was 2.12. A27G U87A U108C gave a self-cleavage of 0.03. A22G A82U A91U U103C U124C showed a self-cleavage of 0.02. For A22G U100C A110G G138A, the self-cleavage was 0.25. In the case of U49A U57A A98G C107A, the self-cleavage is reported as 0.01. For A91G G99A U124C, the self-cleavage was 0.07. U87C U108C G115U gave a self-cleavage of 0. For U9A A30G A67U U97C, the self-cleavage was 1.05. For A27C U39A G106U, the self-cleavage was 0.03. Work on A11U A55G A59U A110G yielded a self-cleavage of 0.07. A30G A68G U102A showed a self-cleavage of 1.01. Variant A18G U87A G115U has a self-cleavage of 0.12. Variant A30G A33G U38C A59G has a self-cleavage of 1.41. With A11G A78G A91G U103C the self-cleavage was 0.07. U39A C40U A52G A63G A118G showed a self-cleavage of 2.1. U43G A67G A116G U132C gave a self-cleavage of 0.96. Work on U38C A114U A135G yielded a self-cleavage of 0.03. Variant A11G U120C A135G has a self-cleavage of 0.28. With A56G A90U U103C U122C the self-cleavage was 0.53. With A22G A33G U38C U39C U49A C76A U102A U108C A116U the self-cleavage was 0. For G14A U49C U131C, the self-cleavage was 0.67. With U12C A13C C61U A91G the self-cleavage was 1.43. Variant U9A G29U A51G A59G A82G A96G A98G A110G has a self-cleavage of 0. With U9C U39C A91G the self-cleavage was 1.54. A24G A33G U122C showed a self-cleavage of 1.28. Variant A51U A55U U87C has a self-cleavage of 1.25. With U19C U43C A55U G138U the self-cleavage was 1.06. For U37C U127G C128U, the self-cleavage was 1.68. In the case of U37C U38A A82G, the self-cleavage is reported as 0.67. Work on A11G A22U U37C yielded a self-cleavage of 0.81. C16U C17A G136U gave a self-cleavage of 1.4. A60G A64U G83A U133C gave a self-cleavage of 0.73. Variant A63U A89U A110U A135U has a self-cleavage of 0.89. U3C C40U A60G gave a self-cleavage of 1. A22G A55U A111G gave a self-cleavage of 0.05. Work on U70C A114U U130C yielded a self-cleavage of 0. Work on A60G A95G A96G U122C yielded a self-cleavage of 0.44. Variant U9C A92G A114G A116G has a self-cleavage of 0.1. C17U A22U A62U showed a self-cleavage of 0.66. A22G A55G A59G U102C showed a self-cleavage of 1.38. For A82U A129G A134G, the self-cleavage was 0.1. With A4G A47G A69G U87C A116U A140G the self-cleavage was 0.44. Work on A55G A62U A94G U100C yielded a self-cleavage of 2.23. U43C A90G C109U A125G gave a self-cleavage of 0.08. A27G U38C U127C gave a self-cleavage of 0.22. A18G A52G A54G A91U U100C U127C gave a self-cleavage of 0.82. With A33G A69U U108C the self-cleavage was 0.01. Work on A23C A52G A118G U122C yielded a self-cleavage of 1.8. Work on U2C A56C U108A yielded a self-cleavage of 0.05. A5G U43A C128U gave a self-cleavage of 0.97. For A90G U120C A135U, the self-cleavage was 0.21. With A68U A82G U131C the self-cleavage was 0.16. With A5G A18G A56G G73U the self-cleavage was 0.33. In the case of U9C C85U A89G, the self-cleavage is reported as 1.13. U26C A91G A94G gave a self-cleavage of 1.21. U49A A68U A96G A110G gave a self-cleavage of 0.12. A64U A66G U130C U132C showed a self-cleavage of 0.48. A30U U57A A66G U103A U127C gave a self-cleavage of 0.26. Work on A5G U9C A18G A116C U130C yielded a self-cleavage of 0.14. In the case of U3C G14A A91G U122A U131C, the self-cleavage is reported as 0.01. Variant A23G A51G U127C has a self-cleavage of 0.78. Variant A47U U72C C109A U124C A126G has a self-cleavage of 0.03. Variant A24G U108C A110G has a self-cleavage of 0.02. Work on U43C A62G U87C A95G U130C yielded a self-cleavage of 0.24. Work on A59G U124A A140G yielded a self-cleavage of 0.53. For U19A A51U A60G A66G U108C U122C, the self-cleavage was 0.04. In the case of G7A A78U U122C, the self-cleavage is reported as 0.24. Work on U9C A22G A36G U37C A59G A114G U132C yielded a self-cleavage of 0.2. G53A A82U A125G U132C gave a self-cleavage of 0.01. Work on G15A U39C A68G U122C yielded a self-cleavage of 0.98. For C10U A55G A89G A114G, the self-cleavage was 0.22. In the case of A54G U87C A110G A111U, the self-cleavage is reported as 0.02. A59U A68U A86G gave a self-cleavage of 1.09. A47G G48A A78G gave a self-cleavage of 0.27. In the case of A63G A66G A78G U127A, the self-cleavage is reported as 0.5. Work on A68G A78G U103C A114G yielded a self-cleavage of 0.07. With A23G A24G G29U A52U A54G A86G A135G the self-cleavage was 1.17. In the case of A18G A24C A64G A68G U70C, the self-cleavage is reported as 0.82. With U3C A96G A117G the self-cleavage was 1.34. A13U U19C A24G A62G A125G showed a self-cleavage of 0.55. A47U U57C A68G A135G showed a self-cleavage of 0.19. G20A U131C U132C gave a self-cleavage of 1.42. With A94G C105U A125G the self-cleavage was 0.02. Work on A51G U70C A111G yielded a self-cleavage of 0.01. Variant A33C U37C G138U has a self-cleavage of 2.05.
